Test results reported in ChEMBL document CHEMBL4888484, “Replenishing the malaria drug discovery pipeline: Screening and hit evaluation of the MMV Hit Generation Library 1 (HGL1) against asexual blood stage Plasmodium falciparum ,using a nano luciferase reporter read-out” (2022).
Out of some 150,000 compounds screened, about 540 (0.36%) showed an effect of 50% or more. The list shows a part of the results.

Test system: Plasmodium falciparum
Test: Primary screen in NF54 nanoGlo assay, in single point, at 2uM, 72h; a lower Z score goes with more inhibition
Assay type: functional, Erythrocyte
Conditions: timepoint 72 hour

SMILES | % Inhibition [%] | Z score
Cc1noc(C)c1CN(C)C(=O)c1cc(C(C)C)[nH]n1 | -7 | 0.97
Cc1ccc(C(=O)N[C@@]2(C#N)CC2(C)C)c2c1CCC2 | 0 | 0.06
Cc1nn(C)cc1NC(=O)CN(Cc1nccn1C)C1CC1 | 2 | -0.28
O=C(NCC1CCCC1)C1CCOCC1 | -15 | 1.65
CC(C)n1nnnc1-c1ccccc1NS(=O)(=O)C1CC1 | 5 | -0.9
C[C@@H](C1CC1)N(C)C(=O)c1cc(O)nc2ccccc12 | 7 | -0.95
CCN(CCOc1ccccc1C)C(=O)C[C@H]1CNCCO1 | -1 | 0.15
Cc1nn(C)cc1-c1ccc(C(=O)N2CCC(F)(F)CC2)cc1 | -2 | 0.44
O=C(NCCC1=CCCCC1)[C@H]1CCCN(c2nc3ccccc3[nH]2)C1 | 2 | -0.39
Cc1c(CN2C[C@@H](CN3CCCCCC3)[C@@H](CO)C2)oc2ccccc12 | -2 | 0.45
O=C(c1cc2ccccc2s1)N1CCC(Oc2nncs2)CC1 | -1 | 0.28
O=C(CCc1nc(CS(=O)(=O)c2ccccc2)no1)N1CCCCCC1 | -1 | 0.1
COCCCn1c(C)cc(C(=O)N2CCC[C@H](c3nc(C)ncc3CO)C2)c1C | -3 | 0.44
CC(C)NC(=O)N1C[C@@H]2Oc3ccccc3S(=O)(=O)NC[C@H](O)CN(C)[C@@H]2C1 | 13 | -1.96
Cc1nc(C)c(CNC(=O)c2ccc(C(C)C)nc2)o1 | -3 | 0.59
CC(=O)Nc1ccc(S(=O)(=O)Nc2ccc(Oc3ccc(C)nn3)cc2)cc1 | 12 | -1.57
COCc1cccc(CC(=O)N2CCCCC[C@H]2c2ncon2)c1 | -10 | 1.39
CC(C)NC(=O)[C@@H]1C[C@@H](NC(=O)c2ccsc2)CN1c1ccnc(N)n1 | -5 | 0.9
CC(C)(C)n1cc(C(=O)NC(c2ccccc2)C2CCOC2)nn1 (stereo unspecified) | -7 | 1.12
COc1cc(C)ccc1C(=O)NC(C)(C)c1ncc(OC)c(=O)[nH]1 | -1 | 0.2
C[C@H](NS(=O)(=O)N1CCCCC1)c1cccnc1 | 6 | -0.82

SMILES | % Inhibition [%] | Z score
COc1cccc(Cc2noc([C@H]3CCc4nc(C)nn4C3)n2)n1 | -7 | 0.88
CC(C)Cc1noc(CN(C)C(=O)c2ccccc2[C@H]2CCNC2)n1 | -13 | 2.11
Cc1csc(NC(=O)c2ccc3c(c2)C(=O)N(CCc2ccccc2)C3=O)n1 | -17 | 2.09
COc1ccc(C(=O)N2CCCC2)c(OC2CCN(Cc3nnc(C)o3)CC2)c1 | -12 | 1.86
CCCC(=O)n1nc(NCc2cccc3ccccc23)nc1NCc1cccc2ccccc12 | 0 | -0.05
COCCn1cc(N[C@@H](CCC(C)C)C2CC2)cn1 | -3 | 0.43
CCc1nccn1Cc1cn(CC(=O)N2CCOC(C)(C)C2)nn1 | -7 | 0.92
O=C(NCc1noc(C(F)(F)Cl)n1)c1ccccc1C1CCC1 | -3 | 0.64
CCN(CC)CCN1C(=O)[C@@H]2C(C(=O)Nc3ccc(C)c(Cl)c3)[C@@H]3C=C[C@]2(O3)C1C(=O)NC1CCCC(C)C1C (stereo partly specified) | 7 | -1.05
Cc1noc(C)c1CN1CCC[C@H](NC(=O)c2n[nH]c3c2CCCC3)C1 | -11 | 1.36
COc1cccc(NC(=O)c2sc3ncnc(N4CCCC[C@@H]4C)c3c2C)c1 | 1 | -0.08
CCc1ccc([C@@H](NC(=O)C(=O)Nc2cccc3cccnc23)C(C)C)cc1 | -2 | 0.31
Nc1nc(C2CC2)ncc1C(=O)NCc1ccccc1CN1CCOCC1 | -5 | 0.84
CN(C)[C@@H](CNc1ccc(Cl)cn1)C1CC1 | -4 | 0.53
Cc1nnc([C@@H]2CN(C(=O)Nc3ccc(OCCC(C)C)nn3)C[C@H](C)O2)o1 | -4 | 0.66
COc1cccnc1C(=O)N1CCCN(CC2CC2)[C@H](C(C)C)C1 | -11 | 2.16
O=C(NCCc1ccccc1)N1CC[C@H](OCc2ccccc2)C1 | -13 | 2.28
COc1ccc([C@@H](C#N)C(=O)c2cc(OC)c3c(c2)OCO3)cc1 | -5 | 0.61
Cc1cccc(-n2cc(-c3ccccc3)nc2NC(=O)CN(CC2CC2)C(=O)NC(C)(C)C)c1 | -7 | 1.17
CCN(CCS(C)(=O)=O)C(=O)c1oc(Br)cc1C | -6 | 1.22
C[C@H](OC(=O)C1CCOCC1)c1c(F)cccc1N(C)C | -16 | 1.51

SMILES | % Inhibition [%] | Z score
Cc1ccc([C@@H](O)CNS(=O)(=O)N2CCCC2)cc1 | -13 | 1.86
Cc1nn(C)c(N2CCN(c3ncnc4c(C)cccc34)CC2)c1N | -16 | 1.79
Cc1nc2nc3c(c(N4CCN(c5cccc(C(F)(F)F)c5)CC4)n2n1)CCC3 | 7 | -0.6
Cc1nnc([C@@]23COC[C@@H]2CN(C(=O)c2cccc4[nH]ccc24)C3)o1 | -10 | 1.33
CC1CCC(CC(=O)NC2CCN(CCS(C)(=O)=O)CC2)CC1 (stereo unspecified) | -1 | 0.2
CCCn1cc(CN2CCC(n3nccc3NC(=O)c3cccnc3)CC2)c(C)n1 | -2 | 0.31
COc1cccnc1CC(=O)NC1(c2ccccc2)COC1 | -7 | 0.97
CN(CCN(C)C1CC1)C(=O)c1cc2[nH]cnc2cc1F | 31 | -4.5
CCCn1c(C)cnc1C1CN(S(=O)(=O)c2ccc3c(c2)CCC3)C1 | -14 | 1.75
Cc1cc(N(C)C)nc(N2CCN(C(=O)c3cccs3)CC2)n1 | -16 | 3.13
Cc1cccc2cc3c(nc12)N(C(=O)C(C)(C)C)CC3 | -7 | 0.84
CC1CCC(CC(=O)N[C@H]2CCOC3(CC(C(=O)O)C3)C2)CC1 (stereo partly specified) | -9 | 1.52
Cc1c([C@H](C)NC(=O)c2cc(C3CC3)nc3onc(C4CC4)c23)cnn1C | 8 | -1.27
COc1ccc(N2C[C@@H](C(=O)OCCN(C3=NS(=O)(=O)c4ccccc43)c3ccccc3)CC2=O)cc1 | -9 | 1.02
O=C(c1ccco1)N1CC2OCCN(Cc3ccccc3)C2C1 (stereo unspecified) | 7 | -0.97
Cc1ccc(NC(=O)N2CCN(c3ccc(C)cc3C)C(=O)[C@@H]2C)cc1 | -4 | 0.66
O=C(CCC1CCN(C(=O)c2ccccc2F)CC1)Nc1ccc(N2CCOCC2)cc1 | -17 | 2.35
NC(=O)CCN(Cc1ccncc1Cl)c1ccc(F)cc1 | 2 | -0.23
Cc1nnsc1C(=O)N1CCCC1CC(O)c1cccs1 (stereo unspecified) | -6 | 0.72
C[C@H](NC(=O)C1(N2CCCC2)CCCCC1)c1ccc2c(c1)OCCO2 | -8 | 1.01
Cc1cc(C)c(CNC(=O)c2cc(Cl)c[nH]2)c(=O)[nH]1 | -14 | 2.42

SMILES | % Inhibition [%] | Z score
CCc1nn(-c2ccccc2)c(N(C)C)c1CN(Cc1ccccc1)C(=O)c1ccc(F)cc1 | 3 | -0.24
Fc1ccccc1C1(CNc2ncnc3oncc23)CC1 | -3 | 0.42
COCCN1C(=O)N[C@@](Cc2cccc(OC)c2)(C2CCN(Cc3cccc(Cl)c3)CC2)C1=O | -9 | 1.28
CCn1cnnc1CN(C)C(=O)c1cc(Cn2ccnc2C(C)C)[nH]n1 | 0 | 0.01
COc1ccc(CCC(=O)N2CCCN(C(=O)CCn3cnc4ccccc4c3=O)CC2)cc1 | -10 | 0.97
OC[C@]1(O)CCCN(Cc2ccccc2OCCCN2CCOCC2)C1 | -12 | 1.9
Cc1ccoc1C(=O)NC[C@H]1CCN(Cc2ccc3ccccc3n2)C1 | -13 | 1.76
Cc1cccc(C(=O)N2C(C(=O)N(C)C)C[C@@H]3OCC[C@@H]32)n1 (stereo partly specified) | 4 | -0.68
CC1CC(C(=O)Nc2nc3c(s2)CC[C@H](C(=O)O)C3)C1 (stereo partly specified) | -15 | 1.56
Cc1cc(C)n(-c2cncc(NC3CCN(CC(F)F)CC3)n2)n1 | -5 | 0.6
COc1ccc(-c2nc(NCc3ccc(Cn4cccn4)cc3)[nH]c(=O)c2C#N)cc1 | 5 | -0.82
Cc1cc(C#N)c(N2C[C@@H](CN3CCCCC3)[C@@H](CO)C2)nc1C | -2 | 0.27
CO[C@H]1CCN(c2ncnc(C)c2F)CC1(C)C | -6 | 0.76
Cc1nc[nH]c1CN1C[C@H]2CC[C@@H](C1)N(C(=O)c1ccc(C#N)nc1)C2 | -6 | 1.15
OCc1cc(C(F)(F)F)ccc1-c1cnc2c(c1)CCCO2 | -4 | 0.46
COc1ccc(C(=O)NC(=O)NC2(C(Cl)(Cl)Cl)OCCO2)cc1 | 14 | -1.9
CC(C)(C)OC(=O)N[C@@H](C(=O)N1CCCOCC1)c1cscn1 | -6 | 0.81
Cc1cccnc1CC(=O)NCC[C@H]1CCCOC1 | 6 | -0.87
O=c1cnc2ccccc2n1CCOc1ccc(F)cc1 | -1 | 0.1
O=C1CC[C@]2(C(=O)NCCN3CCOCC3)CCCC=C2N1Cc1ccccc1 | -9 | 0.84
